Some of the results follow. At the low end of the ranking the order means little. Measured with an extract: partners may take part in the binding.
target: T1, HNF4alpha8 (COS-7 nuclear extract) (UniProt P41235-5); test: protein-binding microarray; settings: COS-7 nuclear extract on double-stranded Agilent 4x180k PBM; binding buffer, salt, pH and temperature not given; high values mean tight binding; double strand, one strand shown; sequences stand for … in …GCCTAGGGAGATTAGAGTATCGGTCGA
T1 sequence: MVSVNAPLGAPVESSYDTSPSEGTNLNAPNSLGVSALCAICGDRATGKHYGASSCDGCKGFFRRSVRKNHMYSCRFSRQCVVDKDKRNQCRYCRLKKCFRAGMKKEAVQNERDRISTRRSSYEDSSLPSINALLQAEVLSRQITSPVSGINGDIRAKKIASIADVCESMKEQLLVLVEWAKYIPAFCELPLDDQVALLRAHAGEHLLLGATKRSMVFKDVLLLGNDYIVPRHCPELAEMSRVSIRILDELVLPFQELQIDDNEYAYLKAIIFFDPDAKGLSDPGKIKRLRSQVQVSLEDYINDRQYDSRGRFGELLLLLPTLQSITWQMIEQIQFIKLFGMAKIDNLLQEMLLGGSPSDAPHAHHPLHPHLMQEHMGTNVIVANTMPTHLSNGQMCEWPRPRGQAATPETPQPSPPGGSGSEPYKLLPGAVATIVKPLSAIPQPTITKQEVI

Row | Sequence | binding signal (log2 normalized intensity)
1 | TTATCTATACAGTTGTGGGTATGTCTGTAG | 1.49
2 | ATCATTTCTACAGGGTCAAGCAAACAAATG | 0.669
3 | AAGCTCTGAAAGCTTCAAAGGACAGGCTGA | -1.38
4 | TGCCCATCTGGTGGTGGTTCTTGTTTCATT | 1.78
5 | TTCTTGTTAACCTCCTATGATCTTTCATTC | 1.85
6 | AAACAGGTGAAAGATAAGGGCTAGTTCATT | -1.34
7 | CAGGCGCCGACTGCCAGGAGGGGACTTCAA | -1.3
8 | GTCATAAGAAACATTTTACAACCTATTCTC | -1.31
9 | AATATGGTCCCTGACCTTAAGGAGTGTCCT | 2.36
10 | GCTAAAACCCTGGCCACTCCCTGATAGAGA | -1.33
11 | ATCTGAGGTGGTCCAGGGCCCTTACCATCA | -1.36
12 | CGTGCGGTCGGGCGCGCGGGCCGGGAGGGG | -0.997
13 | GATTAAACAAACAAGTTTTATTGGGGGGTC | 1.96
14 | ATAGAACACTTGTACATACTTTTGGGGTAT | 1.11
15 | GAGGGTGGTGGGTGAAGGATGGAATGCTGA | -1.29
16 | TGAAGAAAGATCACACAAATGGATCTTTCT | -1.3
17 | TTCAACCTCTTTCTCTTTGATGTAAATTTT | 1.57
18 | AAACATCCTGCCTAACCACCTGACCACAAC | -1.26
19 | ACTTGTGGTATGTTTGGATTGGGCAATGAC | 1.81
20 | CAAATCATTACTATCTGCTGGGGGCTGGGC | -0.387
21 | GCCTCTAGCCCAATATTTGCTTACCAAACT | -1.27
22 | GCCTGGCGTGGATTCCGAGCGTTGGTGTCT | 0.885
23 | TGGTTTTATGGTGTCTTATCTTCCTCTGGC | 1.91
24 | CAGGTCTTTCTGGAGATAACAGTGTAAGGA | 0.953
25 | GTGAGGGAGAAGTTTTATGGCAGGGTCGGA | 1.52

Row | Sequence | binding signal (log2 normalized intensity)
26 | TCCAGCCTCCAGCTACTCACTCTTCCCAAA | -1.34
27 | ATTGACCCTTAGGCCAAGGCTTACTGGCGC | 0.384
28 | CAGTGTGGCAGGTGAAATAGCTGAACTATT | 1.34
29 | CCCCGCGCCGCGTCCCTTCCCCCGGCGCAG | 4.1
30 | CTCTCTTTGTGAAATGGGACCCAACTTTTG | 0.822
31 | TGCGGCTCTTCTGATCGTGAGAAGAGGACT | 0.434
32 | GAAACGGGTTCAAGCTTGATCCAGGATCCT | -0.823
33 | GACAGAAGGGAGAGTCCAAGATACCACTGA | -1.35
34 | GCTTAATCTCTGCTCATAATGCCAGGCAGG | 0.304
35 | GGTCAATGTGCACATTCGAAGTTTTGCTCC | 1.65
36 | AATGATCTGGTCAGACTGAGAGAGCAGGGC | -1.26
37 | AGAAATGTTATCTCAGTAGACTAACGTATG | 0.588
38 | GCATCGTGGGTATTTGGGGAGTTCTTTCTG | 1.34
39 | TCAATGTCCCCTTAGGAATAGTATCAGGCA | 1.24
40 | ATCTGCTGCCCTTCCCTCCACTATTGTCCT | 2.86
41 | AGGACCATGTTCTCCTAAAGTGACTAGAGA | -1.37
42 | AATGGACCCAAGCGGCCATTTACTGACTAA | -0.973
43 | TGAGAGGTGCTGCATGGGCTGAGCCCAGCA | -1.3
44 | CATGAGAAACATCCACATGTGGGTCCAAAG | 3.23
45 | AACAGGGCTCCTGTTCAGCATAGTCCTGCC | -1.37
46 | CCGCCTCTTGGCCTCCCCCTTCTGAGTCTC | 2.71
47 | TGGATCGCTTGGCTCAGGCCGGTTGGCCAG | -0.646
48 | CAGGACTGCGTAACTTACAGTGCACTTTGA | 5.6
49 | TATCGCCCTTCTGTCAAGTCCAAAGTTCTT | 5.2
50 | AGAGAAGGGCTGAAGGTTAATTCGCTCATC | 0.837

Row | Sequence | binding signal (log2 normalized intensity)
51 | CCTATCAGCTACTCATGCTTTCTTATCTGG | 0.48
52 | GACCGAGGGTTAAGCTCATGCTTTCATCTC | -0.935
53 | AATTGTTCAACATGGTGACTCTAGTCAATG | 1.06
54 | CTGGAAAGGGCTTCAGAGTCGATAGTCCAA | 1.14
55 | CATCAGATACCTACTCTGCTCTTCTCTCTG | -1.22
56 | AATGCAGCCTTATCTTCCAGCCCTGTCTCT | -0.992
57 | TAGTGCCTGGATCTTGGAACAGGTCTCAGG | 0.797
58 | GTGGACTTTGCCTGCCCATCCCGTGGACTC | 4.49
59 | CCCACCTTGTTATCTTGTCTCTTCTTGTAC | 2.13
60 | AACTGAGTTACGTAATGTGTCCCCACATCT | 2.15
61 | ATCCCCGCTCCCCTCCCCCACCCGCGGTCC | 6.49
62 | CTCGGGGCCAGGTGGGCTGCTCCCAGTGCC | -1.23
63 | GAAGGTTATTAGTGATAAGCAGAGGATGGG | -1.1
64 | GATCAGGCAAGTGGTCATGTAGGTGTCTCA | 1.09
65 | CCTGGTGGACCCAGCTGGTAAGTGCAAGGC | 1.15
66 | AAGGAGAAGGCTCCCAAGGTATCCTCCTAG | -1.41
67 | TCCCTTCCCGGGGAGTCCTGGGCGTTGCTC | 0.266
68 | CAGCCCAGTGGTAATGGAGCTGAAACTATA | -1.22
69 | AGGGATTTCAGTGCCCTCATAAGAGACTTT | 2.22
70 | AAGGAAGGAGGGAGGCAGGGAGACAACCTG | -1.25
71 | CTTCATTCCCGAGTGCCTTTAGAGGGCAAG | 2.07
72 | CAAACAAGAAAGTTGAGGTGAATACACAGC | -1.27
73 | GCTCTTTACCCCTGCAAGGATTGATCAGCA | 2.1
74 | CTTTATGACTTGGGTGCACCAATGATCAAA | 1.2
75 | CATAGACCCTGTTGGTTTCTGGGATTTGTA | 1.07

Row | Sequence | binding signal (log2 normalized intensity)
76 | TCTGATGTACCCAGCACTGTCAGCAGGGGG | -1.3
77 | TGTCGCTATCTTATCTGGGCCAGGTATTTG | 1.21
78 | CTTGTGGCTGGGTGATCTGGGAAACAGGCT | -1.33
79 | ATTCCCTCCAGCAGGGGATGCCCTTTGACC | 9.35
80 | GGACTTTGGCCCTCAGCCCAATGTGGTAGG | 6.09
81 | TAGTCTCCTATCAAGAAAATAGAAGTGCTA | -1.27
82 | TTTTTTCTCTCCCCTTTTAATACAAGTATT | 1.92
83 | TAGGTTTGTGAGTCCAAAGGTCAGCCGGGG | 8.36
84 | CACCATTCCTGGCAGCCAGCTGGTTTGCCT | -1.07
85 | GCTAAGATGTAGCAAGAATGTAAATAGCTA | -1.25
86 | CTGACCTTAGACCCTCAGGCTCCACCGGAT | 2.04
87 | GCGTGAGTTTGCTGTCTTGACTTGGTTCGG | 1.41
88 | TGCCTCTCTGAACCTTCCTTAGAGAATGCT | -1.28
89 | CAGGAATGTTTCCTCTCCCAGCCCCTAGCC | 2.6
90 | ACTTTGAAGGCCCCAATTGCCAAGGGGGTG | -1.25
91 | GGTATTCTTTCATCCCTCTCCCGCCTCTTG | 1.35
92 | AGGGAAGAGGCAAGGAAAGATAAATAGTGA | -1.28
93 | TGGTTTTGTAAATATAGGATCATGTTGTCT | 1.84
94 | TGTTGGGGAATCAGTCCATAAATACACAAT | -1.04
95 | TAATGAGTGCTATCCCTGGAGCCTTAGAAG | -1.46
96 | AACGGTTCAAAGGACAGACTTTGGACCTGG | 7.98
97 | TCCACACCCCCCACTCTTCATATCTTCCCA | 3.03
98 | AAGGCCAAACACGGACAGGCAGGCCCAGAC | -1.41
99 | TACATTGCATATCAGCATGGCTGCAGAGAA | -1.33
100 | ATACTCCAAGCCTAGAAAAACAACTAAAGG | -1.3

Row | Sequence | binding signal (log2 normalized intensity)
101 | ATCGGCTTCCCTGGTCCTCAGGCCTTTGGA | 1.15
102 | CCCTACGTAAATGCACGGAAGCCTTCCCCG | -1.49
103 | GAGTTTAAGGTTGTACTTTGGAGTTTACTT | 4.42
104 | GAAAAGAAAAAACCCATCCACCCATCCAAA | 2.76
105 | AACCTTTGATCATTCCTGCACAGGACTGCT | 3.55
106 | TCACCCGATAAGCTGACCCCAAAACCCCCA | 6.1
107 | ACACAAAGGCAGAGCACTAAATCTCTCCTA | -1.39
108 | AGTCCCAATCCCCCATCTATTTACAAAAGA | 2.89
109 | TAAAACTAGGAGAGTCCGGGGCAAACAAGG | -1.09
110 | AACAACTGCCACTTATTGTGTTATGTACTT | 1.82
111 | AGTTGGTGTTTTCCGGGGGCGGTTTTTCCA | 1.54
112 | CCCTTCGCTAGAGCAAATACAGCACTCAAA | -1.31
113 | AAAAAATGGGCAAAGGACAATAATGAATAA | -0.651
114 | AGCAGGTTATCTAATGGAGAGGATGGGGAC | -1.23
115 | CTGCATTCCAGCTCAATCAAGGACTGGGCT | -1.09
116 | GGGGGAGGGAGATAGAGAAAGAAAAAGTAC | -1.16
117 | CTCTTGCTTCACAGCCCTCCAACTATGCTA | -0.519
118 | CTCCTAAAGGCAGCCCCTTATCAGGAGAGG | -1.17
119 | TAGCCTTATCTCAGATGAGACTTTGGACTT | 8.64
120 | ATGACCTTTACCCCCATTTGGTAATGGGCC | 5.46
121 | TTTATAGGCTAGAATGGAAACCAATAACTG | -1.35
122 | ATTATCTGCTTTTATGACCTTTGACTGCAG | 7.32
123 | GAGGTGGAAGTGGCAGATTAGAGACCTCTA | -0.0165
124 | ATTGAAGTTACGTATTTTTGCCAAGGATAT | 0.78
125 | ATGGAGATGAGAAACTTATTGTGAACTGGA | 1.08

Row | Sequence | binding signal (log2 normalized intensity)
126 | ACCAGGGCAGGGAAAGGGGGTTTGCAACCT | -1.37
127 | AGCCATTTATCAGGGTAATGAGTGCTATCC | 0.957
128 | TCCTACCTTTCCCCTAAAGGAGGCAAGGTC | 0.783
129 | GTTGAGAACTGAGTTTAGAATTTGAACTAT | 3.68
130 | TGGCATACTACAGAAATCTTTAAGTGCATT | 0.375
131 | TGTGGAGGTCTACCAGGAATATTGCCCCCT | 5.57
132 | TACCAAAGCCATGGCTCCAACCCGATTCTG | -1.36
133 | ACTACATTTCCAAGACCTCTTTGCGGATAG | -0.337
134 | CCCCACCCTCCCACGCACTCGCCTGACTCC | 3.85
135 | GCAAGCTCCTGGTTGGGGCCTCCCTCCGTG | -1.42
136 | CTCATTAATCATCCGTCACCCAGACAGACT | -1.18
137 | GTAAGGGGAGGAGCTGAAACAGTCTGATTC | -1.33
138 | ATCCACCCATCCAAAGGTCAGCAATCTCAA | 3.45
139 | CATCACCTAACTTGTGGCTGGGTGATCTGG | 1.34
140 | TCTCTCATGCTATGCTCTCTCTCCACCTGG | -0.806
141 | CTCTTTTTTCTTGTTGACTTTCCTATTGTC | 1.88
142 | AGAGAGAGAGAATGACCCTTGCTTGACCCA | 4.02
143 | AGGCAAACATAAACTCAGAGTCAAATCCCC | 0.536
144 | CCCCTAAAGGAGGCAAGGTCCAAACTTCTC | 2.81
145 | AGAAGGGGTCAGGTAAGACAGCCTCCTGAA | -1.25
